Experimental data taken from PubChem BioAssay AID1461 (National Center for Advancing Translational Sciences (NCATS), 2008).
Among all 220,000 compounds or so, about 2,300 (1%) were called active. Inconclusive means that the source gave no clear call. Such entries were picked first, then a sample of the others. Calls follow the shape of the dose curve; as a rule, active = well fitted inhibition curve with a large enough effect; inconclusive = small, poorly fitted or top-dose-only effect, or effect the other way; inactive = no such curve, though single readings can be large or run the other way. Potencies of inconclusive entries are left out as doubtful fits.

target: Neuropeptide S receptor (Homo sapiens) (UniProt Q6W5P4); experiment: qHTS Assay for Antagonists of the Neuropeptide S Receptor: cAMP Signal Transduction; details: CHO-NPSR cells, cAMP TR-FRET, antagonist mode; series mostly up to 38.3 µM; also: nearly all actives have a fitted effect of over 50% in size
Chain of UniProt Q6W5P4 (Q6W5P4 whole entry, looked up): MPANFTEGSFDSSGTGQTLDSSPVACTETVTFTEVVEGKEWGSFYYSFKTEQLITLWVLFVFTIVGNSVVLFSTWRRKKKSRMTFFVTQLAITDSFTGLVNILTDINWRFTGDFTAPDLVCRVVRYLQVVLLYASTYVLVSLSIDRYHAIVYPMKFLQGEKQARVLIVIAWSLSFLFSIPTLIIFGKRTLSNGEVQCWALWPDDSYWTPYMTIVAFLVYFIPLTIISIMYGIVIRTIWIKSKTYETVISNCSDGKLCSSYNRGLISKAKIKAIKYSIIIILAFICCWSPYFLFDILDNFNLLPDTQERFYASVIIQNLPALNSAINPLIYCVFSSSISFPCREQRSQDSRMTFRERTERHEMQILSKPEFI
Potency is read from the fitted curve at half-maximal effect; tags tell the direction and shape of the fitted curve.

Compound | Potency
COc1ccc(C(=O)CSc2nnc3ccc(-c4ccccn4)nn23)cc1 | inactive
C=CCn1c(SCC(=O)/C(C#N)=C(\C)N)nc2sc(CC)cc2c1=O | inconclusive [inhibitor, partial curve]
COc1ccc(C(=O)NC(=S)NCc2ccccc2)cc1 | inconclusive [inhibitor, single point]
O=C(Cn1c(=O)n(Cc2ccco2)c(=O)c2cc(Cl)ccc21)NCC1CCCO1 (configuration not stated) | inconclusive [inhibitor, single point]
Cc1ccc(CN2CCN(/N=C/c3cc(Br)cc(Br)c3O)CC2)c(C)c1 | inactive
CCc1nc2c(cnn2-c2ccc(Cl)cc2)c(=O)n1-c1ccc(OC)cc1 | inconclusive [inhibitor, partial curve, poor fit]
CCc1cc(C(=O)N2CCCC(CNS(=O)(=O)c3cccs3)C2)n(C)n1 (configuration not stated) | inactive
Cn1c(O)c(N=NC(=O)c2ccco2)c2ccccc21 | inactive
CCCc1[nH]nc2c1C(c1cccc(OC(=O)c3ccco3)c1)C(C#N)=C(N)O2 (configuration not stated) | inactive
O=C(CCN1C(=O)COc2ccccc21)N1CCN(c2ccccc2)CC1 | inactive
Cc1ccc(C2=NNC(=O)C(c3ccc(Cl)cc3)C2)cc1 (configuration not stated) | inconclusive [inhibitor, single point]
Cc1nc(NCCc2ccccc2)c2oc3ccccc3c2n1 | inactive
COc1cc(-c2nn3c(C4CCCCC4)nnc3s2)cc(OC)c1OC | inactive
O=C(CNC(=O)C(c1ccccc1)c1ccccc1)N/N=C/c1ccc(O)c([N+](=O)[O-])c1 | inactive
CCCCn1c(NC(=O)CC)c(C#N)c2nc3ccccc3nc21 | inactive
Cc1ccc(-c2n[nH]c(=S)c3ccccc23)cc1 | inactive
Cc1cccc(OCC(O)Cn2c(NCc3cccnc3)nc3c2c(=O)[nH]c(=O)n3C)c1 (configuration not stated) | inconclusive [inhibitor, full curve, poor fit]
O=C(/C=C/c1ccnc2ccccc12)c1cccs1 | inconclusive [inhibitor, single point]
C/C(Cn1nnc([N+](=O)[O-])n1)=N\NC(=O)c1ccc(C)cc1 | inactive
Cc1ccccc1NC(NC(=O)c1cccs1)C(Cl)(Cl)Cl (configuration not stated) | inconclusive [inhibitor, partial curve]
COc1cccc(-c2cc3nc(-c4ccccc4)cc(N4CCCC(O)C4)n3n2)c1 (configuration not stated) | inconclusive [activator, partial curve]
CCc1cc2c(=O)n(Cc3ccco3)c(SCC(=O)N3CCCc4ccccc43)nc2s1 | inconclusive [inhibitor, partial curve]
